# In PubChem BioAssay (NCATS):
# Values joined by “and” are separate entries in the source; they are usually repeats but may differ in a detail not shown here. Equal values may be shown once. Inconclusive means that the source gave no clear call. Such entries were picked first, then a sample of the others. A potency beside an inconclusive call is a rough fit, not a confirmed value. Some structures have more than one record in an assay (separate samples or runs), and their calls can disagree. Active and inactive are the calls of the source. Calls follow the shape of the dose curve; as a rule, active = well fitted cell-killing curve with a large enough effect; inconclusive = small, poorly fitted or top-dose-only effect, or effect the other way; inactive = no such curve, though single readings can be large or run the other way.
# Assay: Viability qHTS for spleen associated tyrosine kinase inhibitor (SYKi) naive MV4-11 cells (AID 1963823); also: nearly all actives have a fitted effect of over 40% in size
# Conditions: MV4-11 AML viability, CellTiter-Glo luminescence, 72 h; viability (% of control): at 45 µM (top of the series)
# In short: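 Luminescence from CellTiter-Glo, developed 10 min at room temperature, gave viability of MV4-11 cells never exposed to SYK inhibitor. Cells (500/well) had been incubated with compounds for 72 hr under standard culture conditions.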
# Potency is read from the fitted curve at half-maximal effect; tags tell the direction and shape of the fitted curve.
Structure (SMILES),viability (% of control),Potency
CCOc1ncc(F)c(=O)[nH]1,inactive: 66.2%,–
C[C@H]1C[C@H]2[C@@H]3CCC4=CC(=O)C=C[C@]4(C)[C@@]3(Cl)[C@@H](O)C[C@]2(C)[C@@]1(O)C(=O)CO,–,active: 21.1 µM
CCNC1(C(N)=O)CCN(c2ncnc3c2nc(-c2ccccc2Cl)n3-c2ccc(Cl)cc2)CC1,–,active: 7.42 µM
CC(=O)O/N=C1/C(c2c(O)[nH]c3cc(Br)ccc23)=Nc2ccccc21,–,"inconclusive: 46.1 nM [cytotoxic, full curve] and inconclusive: 93.4 nM [cytotoxic, full curve]"
CC(C)COCC(CN(Cc1ccccc1)c1ccccc1)N1CCCC1 (centres undefined),–,active: 13.3 µM and active: 14.8 µM
O=C(/C=C/C=C/c1ccc2c(c1)OCO2)N1CCCCC1,–,"inconclusive: 29.1 µM [cytotoxic, single point] and inconclusive: 20.9 µM [cytotoxic, partial curve]"
COc1cc2c3c(n(CCCn4ccnc4)c(=O)c2cc1OC)-c1cc2c(cc1C3=O)OCO2,–,"inconclusive: 0.0332 µM [cytotoxic, full curve, poor fit]"
Nc1ncnc2c1C(=O)N(c1ccc(C3CCC(CC(=O)O)CC3)cc1)CCO2 (centres undefined),–,inactive
O=C(CCN1CCN2CCCC2C1)N1c2ccccc2Sc2ccc(Cl)cc21 (centres undefined),–,"inconclusive: 2.59 µM [cytotoxic, full curve, poor fit]"
Cc1cc2nc3c(=O)[nH]c(=O)nc-3n(C[C@H](O)[C@H](O)[C@H](O)CO)c2cc1C,inactive: 86.3% [at 17.3 µM],–
CCCCCC=CCC=CCCCCCCCC(=O)OCC,–,"inconclusive: 29.9 µM [cytotoxic, single point]"
Cc1onc(-c2ccc(F)cc2)c1COc1ccc(C(=O)N2CCS(=O)(=O)CC2)cn1,–,"inconclusive: 5.25 µM [cytotoxic, partial curve, poor fit]"
Nc1nc(OCc2cc(Br)cs2)c2[nH]cnc2n1,–,"inconclusive: 23.1 µM [cytotoxic, single point]"
CC(=O)O[C@]1(C(C)=O)CC[C@H]2[C@@H]3C=C(C)C4=CC(=O)CC[C@]4(C)[C@H]3CC[C@@]21C,–,inactive and active: 16.6 µM
CN1CCN(c2c(F)cc3c(=O)c(C(=O)O)cn4c3c2SCC4)CC1,–,"inconclusive: 11.9 µM [cytotoxic, partial curve, poor fit]"
C=C1/C(=C/C=C2\CCCC3(C)[C@@H]([C@H](C)/C=C/C=C/C(O)(CC)CC)CC[C@@H]23)C[C@@H](O)C[C@@H]1O (some centres undefined),–,"inconclusive: 0.0033 µM [cytotoxic, full curve]"
O=C(NO)c1cnc(N2C[C@H]3C[C@@H]2CN3c2cc(C(F)(F)F)ccn2)nc1,–,active: 2.35 µM
O=C(O)c1ccccc1C(=O)Nc1ccc(S(=O)(=O)Nc2nccs2)cc1,inactive: 66.8%,–
Cc1ccc(NC(=O)[C@H]2CCCN(C(=O)c3c(C)cccc3F)[C@H]2c2ccc(NC3CCCC3)cc2)cc1C(F)(F)F,–,"inconclusive: 16.6 µM [cytotoxic, partial curve]"
OC(CCCN1CCCCC1)(c1ccccc1)c1ccccc1,–,"inconclusive: 33.5 µM [cytotoxic, single point]"
COC(=O)c1cc(Cl)ccc1NS(=O)(=O)C(F)(F)F,–,"inconclusive: 33.5 µM [cytotoxic, single point]"
O=C(NN1CCCC1)NS(=O)(=O)c1ccc(Cl)cc1,–,inconclusive: 0.0009 µM
CCN(CC)CCOC(=O)C(Cc1cccc2ccccc12)CC1CCCO1 (centres undefined),–,"inconclusive: 33.5 µM [cytotoxic, single point]"
O=c1[nH]c([C@@H]2CCCN2)nc2c1oc1ccc(Cl)cc12,–,active: 8.2 µM and active: 16.6 µM
CC(=O)OCC(=O)[C@@]1(O)CC[C@H]2[C@@H]3CCC4=CC(=O)C=C[C@]4(C)[C@H]3[C@@H](O)C[C@@]21C,–,"inactive and inconclusive: 10.5 µM [cytotoxic, full curve, poor fit]"
CN1CCC(OC(c2ccccc2)c2ccccc2)CC1,–,"inconclusive: 15 µM [cytotoxic, partial curve]"
O=C(CCCCCCCCC#CI)Oc1ccccc1,–,"inconclusive: 16.8 µM [cytotoxic, partial curve]"
CCc1oc2ccccc2c1C(=O)c1cc(Br)c(O)c(Br)c1,–,"inconclusive: 33.5 µM [cytotoxic, partial curve, poor fit]"
CO[C@H]1C=CO[C@@]2(C)Oc3c(C)c(O)c4c(O)c(c(/C=N/N5CCN(C)CC5)c(O)c4c3C2=O)NC(=O)/C(C)=C\C=C[C@H](C)[C@H](O)[C@@H](C)[C@@H](O)[C@@H](C)[C@H](OC(C)=O)[C@@H]1C,–,"inconclusive: 33.5 µM [cytotoxic, single point]"
